Measurements as given in PMC4336329 (PLoS ONE, 2015).
Hit rate of the full screen: of about 310,000 compounds, about 14,000 (4.5%) showed an effect of 50% or more. Effects have a minus sign here. This is one part of the list.

molecular target: human ether-à-go-go-related gene (hERG) potassium channel (human, UniProt Q12809); experiment: primary screen, population patch clamp on CHO cells stably expressing hERG
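Also: peak tail current of the secondary pulse compared with the same well before compound.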

human ether-à-go-go-related gene (hERG) potassium channel, sequence (Q12809 whole entry, looked up): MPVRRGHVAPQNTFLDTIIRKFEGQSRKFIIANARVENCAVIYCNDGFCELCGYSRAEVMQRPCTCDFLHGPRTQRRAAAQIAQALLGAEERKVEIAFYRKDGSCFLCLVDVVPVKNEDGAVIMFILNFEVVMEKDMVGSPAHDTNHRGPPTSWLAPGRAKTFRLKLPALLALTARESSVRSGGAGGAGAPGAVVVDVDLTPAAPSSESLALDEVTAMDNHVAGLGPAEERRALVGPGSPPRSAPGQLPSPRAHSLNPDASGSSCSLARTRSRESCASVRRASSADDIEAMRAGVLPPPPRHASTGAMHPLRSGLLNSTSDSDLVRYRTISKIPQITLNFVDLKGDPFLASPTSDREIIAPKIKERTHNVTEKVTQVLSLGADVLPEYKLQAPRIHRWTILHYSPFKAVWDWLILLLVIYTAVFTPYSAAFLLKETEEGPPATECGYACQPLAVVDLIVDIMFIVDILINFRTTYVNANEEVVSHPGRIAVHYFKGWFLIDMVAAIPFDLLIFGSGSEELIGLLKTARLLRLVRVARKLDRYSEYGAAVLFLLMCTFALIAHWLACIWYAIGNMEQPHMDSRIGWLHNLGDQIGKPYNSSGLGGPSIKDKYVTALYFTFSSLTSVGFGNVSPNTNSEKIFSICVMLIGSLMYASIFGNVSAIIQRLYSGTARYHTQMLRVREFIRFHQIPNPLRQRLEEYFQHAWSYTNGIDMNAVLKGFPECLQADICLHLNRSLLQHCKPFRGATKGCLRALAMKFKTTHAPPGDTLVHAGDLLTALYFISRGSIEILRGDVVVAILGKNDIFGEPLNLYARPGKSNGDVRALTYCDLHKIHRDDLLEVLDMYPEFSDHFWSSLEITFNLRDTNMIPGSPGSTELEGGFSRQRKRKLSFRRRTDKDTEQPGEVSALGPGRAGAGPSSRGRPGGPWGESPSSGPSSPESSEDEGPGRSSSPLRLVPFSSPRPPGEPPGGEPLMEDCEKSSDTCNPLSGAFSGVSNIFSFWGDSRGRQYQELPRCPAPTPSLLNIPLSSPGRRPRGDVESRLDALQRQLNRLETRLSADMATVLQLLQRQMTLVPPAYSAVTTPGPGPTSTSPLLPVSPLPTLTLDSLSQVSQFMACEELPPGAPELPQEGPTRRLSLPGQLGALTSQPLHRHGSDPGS

In order of rising “hERG current change (%, negative = inhibition) at 10uM” value:
1. Cc1cccc(N2CCN(C(=O)Cn3nc(Cc4ccncc4)c4ccccc4c3=O)CC2)c1C  -61.3%
2. CCN(CC)CCN(Cc1cc2cc3c(cc2[nH]c1=O)OCO3)C(=S)NCc1ccco1  -55.8%
3. Cc1ccn2cc(C(=O)N3CCN(c4cnn(-c5ccccc5)c(=O)c4Cl)CC3)nc2c1  -46.7%
4. Cl.N/C(=N\N=C/c1ccc(F)cc1)N/N=C\c1ccc(F)cc1  -44.4%
5. CCCCCCC1/C(=N\NC(=O)c2ccccc2)CCC1C(=O)OC (centres unmarked)  -43.8%
6. COCc1ccc(C(=O)N2CCCC(C(=O)c3ccc(SC)cc3)C2)s1 (centres unmarked)  -42.6%
7. O=C(Nc1cc(C(F)(F)F)ccc1N1CCOCC1)c1cccnc1  -42.3%
8. CCC(=O)NCCCc1nc2ccccc2n1Cc1ccccc1F  -39.8%
9. CN1CCN(c2nc(NCc3ccco3)nc(N)c2[N+](=O)[O-])CC1  -29.8%
10. CC1CCCN(S(=O)(=O)c2cccc(C(=O)NCc3ccco3)c2)C1 (centres unmarked)  -26.4%
11. O=[N+]([O-])c1cc(-c2nnc(Nc3ccccc3)c3ccccc23)ccc1N1CCOCC1  -26.3%
12. COc1cccc(SCC2CSc3nc4ccccc4c(=O)n32)c1 (centres unmarked)  -22.3%
13. NNC(=O)CN1C(c2ccccc2)=Nc2ccc(Br)cc2C1c1ccccc1 (centres unmarked)  -20%
14. CN(C)c1ccc(NC(=O)c2ccc3nsnc3c2)cc1  -14.1%
15. Cc1ccc(CN(CC(=O)NC2CCCCC2)C(=O)c2csnn2)cc1  -13.9%
16. COc1ccc(C(C(=O)NC2CCCC2)N(C(=O)c2ccco2)c2ccc3c(c2)OCO3)cc1OC (centres unmarked)  -13.6%
17. Cc1ccc(CNCc2cc(Cl)ccc2O)cc1.Cl  -13.3%
18. CC1CCCCC1Nc1nc2ccc(Cl)cc2n2cnnc12 (centres unmarked)  -12.4%
19. O=C(COc1ccccc1Cl)N(Cc1ccco1)C1CCS(=O)(=O)C1 (centres unmarked)  -12.3%
20. Cn1c(=O)oc2cc(S(=O)(=O)NCCN3CCN(c4ccccc4F)CC3)ccc21  -11.8%
21. CCn1c(SCC(=O)N(C)C)nc2cc(S(=O)(=O)N3CCCCC3)ccc21  -9.54%
22. O=C(CCCCn1c(=O)[nH]c2ccsc2c1=O)NCc1cccnc1  -6.6%
23. Oc1ccc(-c2nc(-c3ccc(O)c(O)c3)cs2)cc1  -5.31%
24. O=C(N/N=C/c1ccc2ncccc2c1)c1ccco1  -4.47%
25. CCOc1c(Br)cc(/C=C2\C(=O)N(CCC#N)N=C2C)cc1OC  -3.68%
26. O=C(CSc1ncnc2c1cnn2Cc1ccccc1)Nc1ccc2c(c1)OCCO2  -1.65%
27. COc1cccc(NC(=O)c2ccccc2N2C(=O)C3C4C=CC(C4)C3C2=O)c1 (centres unmarked)  -1.23%
28. CCO[C@@H]1OC(C(=O)N2CCOCC2)=C[C@H](c2ccc(C(F)(F)F)cc2)[C@H]1CCCO  -0.142%
29. Nc1ncc(-c2nnnn2-c2ccc(Cl)cc2)c(-c2ccc(Cl)cc2)n1  3.7%
30. O=c1cc2c(nn1Cc1c(Cl)cccc1Cl)-c1ccccc1CC2  4.29%
31. CC1CCCCN1C(=O)CSc1nnc(-c2ccco2)n1C (centres unmarked)  4.88%
32. Cc1ccc(NC(=O)CN(C)C(=O)COC(=O)c2oc3ccccc3c2C)cc1  5.09%
33. Cc1ccc(/C(O)=C2/C(=O)C(=O)N(CC(=O)O)C2c2ccc([N+](=O)[O-])cc2)cc1 (centres unmarked)  5.93%
34. CC(C)(C)c1ccc(SCCc2ccccn2)cc1  6.42%
35. CCOc1cc(/C=N\O)cc(Cl)c1OCC  6.77%
36. CCC(C)Sc1nnc(Cc2cc(=O)[nH]c(=O)[nH]2)n1-c1ccc(OC)cc1 (centres unmarked)  7.16%
37. c1cc(CNc2ccc(N3CCOCC3)cc2)ccn1  7.28%
38. O=C(NCCN1CCOCC1)C(=O)NCC1OCCN1S(=O)(=O)c1ccccc1 (centres unmarked)  9.65%
39. CC1=C(C(=O)OCC2CCCO2)C(c2ccc(Cl)c(Cl)c2)NC(=O)N1 (centres unmarked)  11.4%
40. O=C(COC(=O)Cc1ccc(Br)cc1)NCc1ccc(F)cc1  11.6%
41. O=C(Cn1cnc2c(oc3nc4c(cc32)CCCC4)c1=O)Nc1ccccc1  17.3%
42. COc1cc(C(=O)Nc2ccc(S(=O)(=O)Nc3cnc4ccccc4n3)cc2)cc(OC)c1OC  25.5%
43. CCN(CC)S(=O)(=O)c1ccc(C(=O)OCC(=O)N2CCOCC2)cc1  29.2%
44. COc1cc(/C=N/n2c(-c3ccccc3)n[nH]c2=S)cc(OC)c1O  35.4%
